Laboratory results taken from US11420968B2 (priority 2018, dated 2022).

What was measured:
Molt-4 cells = test: cells; details: Homo sapiens, MOLT-4, read-out: Cellular activity (IC50, nM) Molt-4
RS4;11 cells = test: cells; details: Homo sapiens, RS4-11, 48 h, read-out: Cellular activity (IC50, nM) RS4;11

## O=C(NS(=O)(=O)c1ccc(NCC2CCOCC2)c([N+](=O)[O-])c1)c1ccc(-c2ccc(N3CCC[C@@H]3c3ccccc3C3CCS(=O)(=O)CC3)cc2)cc1Oc1cnc2[nH]ccc2c1 [Example A123, (R)-3-((1H-pyrrolo[2,3-b]pyridin-5-yl)oxy)-4′-(2-(2-(1,1-dioxidotetrahydro-2H-thiopyran-4-yl)phenyl)pyrrolidin-1-yl)-N-((3-nitro-4-(((tetrahydro-2H-pyran-4-yl)methyl)amino)phenyl)sulfonyl)-[1,1′-biphenyl]-4-carboxamide]
Molt-4 cells
  IC50: 3910 nM
RS4;11 cells
  IC50: 38.5 nM

## O=C(NS(=O)(=O)c1ccc(NCC2CCOCC2)c([N+](=O)[O-])c1)c1ccc(-c2ccc(N3CCCC3c3ccccc3N3CCC(O)CC3)cc2)cc1Oc1cnc2[nH]ccc2c1 (centres unmarked) [Example A124, 3-((1H-pyrrolo[2,3-b]pyridin-5-yl)oxy)-4′-(2-(2-(4-hydroxypiperidin-1-yl)phenyl)pyrrolidin-1-yl)-N-((3-nitro-4-(((tetrahydro-2H-pyran-4-yl)methyl)amino)phenyl)sulfonyl)-[1,1′-biphenyl]-4-carboxamide]
Molt-4 cells
  IC50: 5840 nM
RS4;11 cells
  IC50: 14 nM

## CN(C)C1CCN(c2ccccc2C2CCCN2c2ccc(-c3ccc(C(=O)NS(=O)(=O)c4ccc(NCC5CCOCC5)c([N+](=O)[O-])c4)c(Oc4cnc5[nH]ccc5c4)c3)cc2)CC1 (centres unmarked) [Example A125, 3-((1H-pyrrolo[2,3-b]pyridin-5-yl)oxy)-4′-(2-(2-(4-(dimethylamino)piperidin-1-yl)phenyl)pyrrolidin-1-yl)-N-((3-nitro-4-(((tetrahydro-2H-pyran-4-yl)methyl)amino)phenyl)sulfonyl)-[1,1′-biphenyl]-4-carboxamide]
Molt-4 cells
  IC50: 489 nM
RS4;11 cells
  IC50: 4.5 nM

## CN1CCC(c2ccccc2C2CCCN2c2ccc(-c3ccc(C(=O)NS(=O)(=O)c4ccc(NCC5CCOCC5)c([N+](=O)[O-])c4)c(Oc4cnc5[nH]ccc5c4)c3)cc2)C1 (centres unmarked) [Example A126, 3-((1H-pyrrolo[2,3-b]pyridin-5-yl)oxy)-4′-(2-(2-(1-methylpyrrolidin-3-yl)phenyl)pyrrolidin-1-yl)-N-((3-nitro-4-(((tetrahydro-2H-pyran-4-yl)methyl)amino)phenyl)sulfonyl)-[1,1′-biphenyl]-4-carboxamide]
Molt-4 cells
  IC50: > 10000 nM
RS4;11 cells
  IC50: 26 nM

## CN(C)CCOc1ccccc1C1CCCN1c1ccc(-c2ccc(C(=O)NS(=O)(=O)c3ccc(NCC4CCOCC4)c([N+](=O)[O-])c3)c(Oc3cnc4[nH]ccc4c3)c2)cc1 (centres unmarked) [Example A127, 3-((1H-pyrrolo[2,3-b]pyridin-5-yl)oxy)-4′-(2-(2-(2-(dimethylamino)ethoxy)phenyl)pyrrolidin-1-yl)-N-((3-nitro-4-(((tetrahydro-2H-pyran-4-yl)methyl)amino)phenyl)sulfonyl)-[l. 1′-biphenyl]-4-carboxamide]
Molt-4 cells
  IC50: 4100 nM
RS4;11 cells
  IC50: 32 nM

## COCc1ccccc1C1CCCN1c1ccc(-c2ccc(C(=O)NS(=O)(=O)c3ccc(NCC4CCOCC4)c([N+](=O)[O-])c3)c(Oc3cnc4[nH]ccc4c3)c2)cc1 (centres unmarked) [Example A128, 3-((1H-pyrrolo[2,3-b]pyridin-5-yl)oxy)-4′-(2-(2-(methoxymethyl)phenyl)pyrrolidin-1-yl)-N-((3-nitro-4-(((tetrahydro-2H-pyran-4-yl)methyl)amino)phenyl)sulfonyl)-[1,1′-biphenyl]-4-carboxamide]
Molt-4 cells
  IC50: > 10000 nM
RS4;11 cells
  IC50: 115 nM

## CN(C)Cc1ccccc1[C@H]1CCCN1c1ccc(-c2ccc(C(=O)NS(=O)(=O)c3ccc(NCC4CCOCC4)c([N+](=O)[O-])c3)c(Oc3cnc4[nH]ccc4c3)c2)cc1 [Example A129, (R)-3-((1H-pyrrolo[2,3-b]pyridin-5-yl)oxy)-4′-(2-(2-((dimethylamino)methyl)phenyl)pyrrolidin-1-yl)-N-((3-nitro-4-(((tetrahydro-2H-pyran-4-yl)methyl)amino)phenyl)sulfonyl)-[1,1′-biphenyl]-4-carboxamide]
Molt-4 cells
  IC50: 4350 nM
RS4;11 cells
  IC50: 45 nM

## CN(C)CCc1ccccc1C1CCCN1c1ccc(-c2ccc(C(=O)NS(=O)(=O)c3ccc(NCC4CCOCC4)c([N+](=O)[O-])c3)c(Oc3cnc4[nH]ccc4c3)c2)cc1 (centres unmarked) [Example A130, 3-((1H-pyrrolo[2,3-b]pyridin-5-yl)oxy)-4′-(2-(2-(2-(dimethylamino)ethyl)phenyl)pyrrolidin-1-yl)-N-((3-nitro-4-(((tetrahydro-2H-pyran-4-yl)methyl)amino)phenyl)sulfonyl)-[1,1′-biphenyl]-4-carboxamide]
Molt-4 cells
  IC50: > 10000 nM
RS4;11 cells
  IC50: 31 nM

## CN(C)CCCc1ccccc1C1CCCN1c1ccc(-c2ccc(C(=O)NS(=O)(=O)c3ccc(NCC4CCOCC4)c([N+](=O)[O-])c3)c(Oc3cnc4[nH]ccc4c3)c2)cc1 (centres unmarked) [Example A131, 3-((1H-pyrrolo[2,3-b]pyridin-5-yl)oxy)-4′-(2-(2-(3-(dimethylamino)propyl)phenyl)pyrrolidin-1-yl)-N-((3-nitro-4-(((tetrahydro-2H-pyran-4-yl)methyl)amino)phenyl)sulfonyl)-[1,1′-biphenyl]-4-carboxamide]
Molt-4 cells
  IC50: 1350 nM
RS4;11 cells
  IC50: 16 nM

## CN1CCC(Oc2ccccc2C2CCCN2c2ccc(-c3ccc(C(=O)NS(=O)(=O)c4ccc(NCC5CCOCC5)c([N+](=O)[O-])c4)c(Oc4cnc5[nH]ccc5c4)c3)cc2)C1 (centres unmarked) [Example A132, 3-((1H-pyrrolo[2,3-b]pyridin-5-yl)oxy)-4′-(2-(2-((1-methylpyrrolidin-3-yl)oxy)phenyl)pyrrolidin-1-yl)-N-((3-nitro-4-(((tetrahydro-2H-pyran-4-yl)methyl)amino)phenyl)sulfonyl)-[1,1′-biphenyl]-4-carboxamide]
Molt-4 cells
  IC50: 1990 nM
RS4;11 cells
  IC50: 4.2 nM

## CN1CCC(N(C)c2ccccc2[C@H]2CCCN2c2ccc(-c3ccc(C(=O)NS(=O)(=O)c4ccc(NCC5CCOCC5)c([N+](=O)[O-])c4)c(Oc4cnc5[nH]ccc5c4)c3)cc2)C1 (stereo partly drawn) [Example A133, 3-((1H-pyrrolo[2,3-b]pyridin-5-yl)oxy)-4′-((2R)-2-(2-(methyl(1-methylpyrrolidin-3-yl)amino)phenyl)pyrrolidin-1-yl)-N-((3-nitro-4-(((tetrahydro-2H-pyran-4-yl)methyl)amino)phenyl)sulfonyl)-[1,1′-biphenyl]-4-carboxamide]
Molt-4 cells
  IC50: 5960 nM
RS4;11 cells
  IC50: 6.3 nM

## CN1CCCC(N(C)c2ccccc2C2CCCN2c2ccc(-c3ccc(C(=O)NS(=O)(=O)c4ccc(NCC5CCOCC5)c([N+](=O)[O-])c4)c(Oc4cnc5[nH]ccc5c4)c3)cc2)C1 (centres unmarked) [Example A134, 3-((1H-pyrrolo[2,3-b]pyridin-5-yl)oxy)-4′-(2-(2-(methyl(1-methylpiperidin-3-yl)amino)phenyl)pyrrolidin-1-yl)-N-((3-nitro-4-(((tetrahydro-2H-pyran-4-yl)methyl)amino)phenyl)sulfonyl)-[1,1′-biphenyl]-4-carboxamide]
Molt-4 cells
  IC50: 1390 nM
RS4;11 cells
  IC50: 2.1 nM

## CN(CC1CCCN1C)c1ccccc1C1CCCN1c1ccc(-c2ccc(C(=O)NS(=O)(=O)c3ccc(NCC4CCOCC4)c([N+](=O)[O-])c3)c(Oc3cnc4[nH]ccc4c3)c2)cc1 (centres unmarked) [Example A135, 3-((1H-pyrrolo[2,3-b]pyridin-5-yl)oxy)-4′-(2-(2-(methyl((1-methylpyrrolidin-2-yl)methyl)amino)phenyl)pyrrolidin-1-yl)-N-((3-nitro-4-(((tetrahydro-2H-pyran-4-yl)methyl)amino)phenyl)sulfonyl)-[1,1′-biphenyl]-4-carboxamide]
Molt-4 cells
  IC50: 751 nM
RS4;11 cells
  IC50: 12 nM
